Inconclusive results are not listed. A number of entries come with more than one value. The other results are left out here. The source may hold further records. The values listed for one entry are repeated measurements across runs, samples, wells, individuals or studies.
Tested on: mice, ADJ-PC-20 plasma cell tumor sc, T/C %
Assay: NCI In Vivo Anticancer Drug Screen. Data for tumor model ADJ-PC-20 Plasma Cell (subcutaneous) in unknown mice
Conditions: endpoint: mean tumor weight, higher = larger tumour
Experimental: The antitumor activity of compounds was measured in mice bearing transplantable tumors. Survival or tumor size were measured and the results are expressed as the measurement made in the treated group (T) divided by the measurement made in the vehicle treated control group (C). The tumor model used in this assay is ADJ-PC-20 Plasma Cell (subcutaneous) in unknown mice

[1] = dose: 250.0 mg/kg/injection, schedule: Q01DX010 (sc), vehicle: steriod suspending solution

Q: Which T/C (dose: 3.1 mg/kg/injection, schedule: Q01DX010 (ip), vehicle: saline) does the source give for `O=NN(CCCl)C(=O)NCCCl` here?
A: 15 % of control and 77 % of control

Q: With `O=c1[nH]c(=O)n(C2CC(O)C(CO)O2)cc1Br` (stereo not drawn) as the compound, how does the T/C (dose: 250.0 mg/kg/injection, schedule: Q01DX010 (ip), vehicle: carboxymethylcellulose (CMC)) read?
A: 33 % of control and 89 % of control

Q: How did the T/C (dose: 400.0 mg/kg/injection, schedule: Q01DX010 (ip), vehicle: other) turn out when `Cc1n[nH]c(=O)[nH]c1=O` was run?
A: 69 % of control and 105 % of control

Q: How did the T/C (dose: 0.16 mg/kg/injection, schedule: Q01DX010 (ip), vehicle: other) turn out when `CN(Cc1cnc2nc(N)nc(N)c2n1)c1ccc(C(=O)N[C@@H](CCC(=O)O)C(=O)O)cc1` was run?
A: 42 % of control, 90 % of control, 103 % of control

Q: How did the T/C (dose: 125.0 mg/kg/injection, schedule: Q01DX010 (sc), vehicle: steriod suspending solution) turn out when `CC[C@H](c1ccc(O)cc1)[C@@H](CC)c1ccc(O)cc1` was run?
A: 67 % of control and 180 % of control

Q: For `Nc1nc2n[nH]nc2c(=O)[nH]1`, which T/C (dose: 25.0 mg/kg/injection, schedule: Q01DX010 (ip), vehicle: other) is on record?
A: 95 % of control and 170 % of control

Q: What about the T/C (dose: 50.0 mg/kg/injection, schedule: Q01DX010 (ip), vehicle: other) of the same compound?
A: 52 % of control and 95 % of control

Q: With `S=P(N1CCOCC1)(N1CC1)N1CC1` as the compound, how does the T/C (dose: 6.25 mg/kg/injection, schedule: Q01DX010 (ip), vehicle: carboxymethylcellulose (CMC)) read?
A: 22 % of control, 51 % of control, 60 % of control

Q: How did the T/C (dose: 4.0 mg/kg/injection, schedule: Q01DX010 (ip), vehicle: carboxymethylcellulose (CMC)) turn out when `CN(C)c1ccc(/C=C/c2ccnc3ccccc23)cc1` was run?
A: 119 % of control and 158 % of control

Q: How did the T/C (dose: 0.25 mg/kg/injection, schedule: Q01DX010 (ip), vehicle: water) turn out when `CC[C@]1(O)C[C@H]2CN(CCc3c([nH]c4ccccc34)[C@@](C(=O)OC)(c3cc4c(cc3OC)N(C=O)[C@H]3[C@@](O)(C(=O)OC)[C@H](OC(C)=O)[C@]5(CC)C=CCN6CC[C@]43[C@@H]65)C2)C1` was run?
A: 89 % of control and 117 % of control

Q: Which T/C (dose: 15.0 mg/kg/injection, schedule: Q01DX010 (ip), vehicle: water) does the source give for `O=C(Nc1ccc(C2=NCCN2)cc1)c1ccc(C(=O)Nc2ccc(C3=NCCN3)cc2)c(Cl)c1` here?
A: 62 % of control and 90 % of control

Q: What about the T/C (dose: 25.0 mg/kg/injection, schedule: Q01DX010 (ip), vehicle: water) of the same compound?
A: 62 % of control and 112 % of control

Q: How did the T/C (dose: 500.0 mg/kg/injection, schedule: Q01DX010 (ip), vehicle: saline) turn out when `CCOC(N)=O` was run?
A: 21 % of control and 56 % of control

Q: With `O=C1C(NC(=O)C2CCCCC2)=C(N2CC2)C(=O)C(NC(=O)C2CCCCC2)=C1N1CC1` as the compound, how does the T/C (dose: 75.0 mg/kg/injection, schedule: Q01DX010 (ip), vehicle: carboxymethylcellulose (CMC)) read?
A: 24 % of control and 92 % of control

Q: How did the T/C [1] turn out when `C[C@]12CCC(=O)C=C1CC[C@@H]1[C@@H]2CC[C@@]2(C)[C@H]1CC[C@]2(C)O` was run?
A: 88 % of control and 117 % of control

Q: Which T/C (dose: 2.5 mg/kg/injection, schedule: Q01DX010 (ip), vehicle: saline) does the source give for `N=[N+]=CC(=O)OCC(N)C(=O)O` (stereo not drawn) here?
A: 76 % of control and 109 % of control

Q: `C[C@]12CCC(=O)C[C@H]1CC[C@@H]1[C@@H]2CC[C@@]2(C)[C@H]1CC[C@]2(C)O` was tested. Which T/C [1] did it give?
A: 95 % of control and 122 % of control

Q: Which T/C (dose: 100.0 mg/kg/injection, schedule: Q01DX010 (sc), vehicle: steriod suspending solution) does the source give for `Clc1ccc(C(c2ccccc2Cl)C(Cl)Cl)cc1` (stereo not drawn) here?
A: 41 % of control and 92 % of control

— PubChem BioAssay AID332 (DTP/NCI, 2004)
